To fix the notation:
B1: PhoQ; a variant is named by its letters at X, in order, P23837 (parent)
chain: MKKLLRLFFPLSLRVRFLLATAAVVLVLSLAYGMVALIGYSVSFDKTTFRLLRGESNLFYTLAKWENNKLHVELPENIDKQSPTMTLIYDENGQLLWAQRDVPWLMKMIQPDWLKSNGFHEIEADVNDTSLLLSGDHSIQQQLQEVREDDDDAEMTHSVAVNVYPATSRMPKLTIVVVDTIPVELKSSYMVWSWFIYVLSANLLLVIPLLWVAAWWSLRPIEALAKEVRELEEHNRELLNPATTRELTSLVRNLNRLLKSERERYDKYRTTLTDLTHSLKTPLXXLQXXLRSLRSEKMSVSDAEPVMLEQISRISQQIGYYLHRASMRGGTLLSRELHPVAPLLDNLTSALNKVYQRKGVNISLDISPEISFVGEQNDFVEVMGNVLDNACKYCLEFVEISARQTDEHLYIVVEDDGPGIPLSKREVIFDRGQRVDTLRPGQGVGLAVAREITEQYEGKIVAGESMLGGARMEVIFGRQHSAPKDE

The other results are listed elsewhere or left out.

The test covers variants of B1. Briefly: enrichment ratio after two sorts for PhoP signalling (ratio (wild type AVST 3.29)); higher = more functional. As to conditions: with PhoP (E. coli).
For DWHR, the enrichment ratio is at most 0.25.

With NKRR, the enrichment ratio was at most 0.25.

Turning to PDHT, the enrichment ratio is at most 0.25.

Take VQQV: the enrichment ratio is at most 0.25.

For the variant MPWK, the enrichment ratio is at most 0.25.

Consider DADM, for which the enrichment ratio was at most 0.25.

As to VPLK, the enrichment ratio is at most 0.25.

On to GYKY, for which the enrichment ratio is at most 0.25.

Turning to SAAR, the enrichment ratio is at most 0.25.

In the case of GSWQ, the enrichment ratio was at most 0.25.

As to EDSY, the enrichment ratio was at most 0.25.

As to NCNR, the enrichment ratio is at most 0.25.

Regarding MHSF, the enrichment ratio is at most 0.25.

Take RTNH: the enrichment ratio is at most 0.25.

Take MFLA: the enrichment ratio is at most 0.25.

Turning to YGII, the enrichment ratio is at most 0.25.

With FTWD, the enrichment ratio amounted to 2.02.

Take PDHL: the enrichment ratio is at most 0.25.

As for HPWM, the enrichment ratio was at most 0.25.

As to GRHK, the enrichment ratio is at most 0.25.

Turning to KPRK, the enrichment ratio was at most 0.25.

As to LDVF, the enrichment ratio was at most 0.25.

Turning to FCTM, the enrichment ratio is at most 0.25.

As for GSYL, the enrichment ratio was at most 0.25.

In the case of RSHE, the enrichment ratio was at most 0.25.

In the case of SYQA, the enrichment ratio is at most 0.25.

Turning to VICW, the enrichment ratio is at most 0.25.

With YPMW, the enrichment ratio is at most 0.25.

On to DCLL, for which the enrichment ratio is at most 0.25.

Turning to RCDD, the enrichment ratio was at most 0.25.

With IWIY, the enrichment ratio was at most 0.25.

As to KLNP, the enrichment ratio is at most 0.25.

For the variant LGNM, the enrichment ratio was at most 0.25.

Regarding ATKV, the enrichment ratio is at most 0.25.

Turning to FPIV, the enrichment ratio is at most 0.25.

In the case of ELCA, the enrichment ratio was at most 0.25.

Turning to TGYF, the enrichment ratio was 1.56.

As for AQPD, the enrichment ratio is at most 0.25.

LPDP: the enrichment ratio was at most 0.25.

Turning to YMGC, the enrichment ratio came out at 0.731.

On to NGFV, for which the enrichment ratio was at most 0.25.

With AQMK, the enrichment ratio was at most 0.25.

For MLAR, the enrichment ratio is at most 0.25.

With FYVY, the enrichment ratio was at most 0.25.

Take GMCT: the enrichment ratio was at most 0.25.

Take RVNP: the enrichment ratio is at most 0.25.

Turning to LKLV, the enrichment ratio was at most 0.25.

On to YNKR, for which the enrichment ratio was at most 0.25.

Regarding IVHA, the enrichment ratio is at most 0.25.

As for KLYN, the enrichment ratio was at most 0.25.

As to LQNR, the enrichment ratio was at most 0.25.

In the case of SAFT, the enrichment ratio is at most 0.25.

For the variant DSCF, the enrichment ratio is at most 0.25.

Consider LRFF, for which the enrichment ratio was at most 0.25.

As for KWSS, the enrichment ratio is at most 0.25.

With MNPC, the enrichment ratio is at most 0.25.

IFMY: the enrichment ratio is at most 0.25.

IDIT: the enrichment ratio was at most 0.25.

Take NFHK: the enrichment ratio was at most 0.25.

IAHM: the enrichment ratio is at most 0.25.

With ICAV, the enrichment ratio is at most 0.25.

Consider WACM, for which the enrichment ratio is at most 0.25.

Turning to SNQH, the enrichment ratio is 2.64.

Consider QTMT, for which the enrichment ratio is at most 0.25.

Turning to PTAC, the enrichment ratio is at most 0.25.

On to YPLP, for which the enrichment ratio is at most 0.25.

In the case of RCLA, the enrichment ratio was at most 0.25.

Regarding SVHG, the enrichment ratio was at most 0.25.

With SQRK, the enrichment ratio is at most 0.25.

For LWYA, the enrichment ratio was at most 0.25.

For AIML, the enrichment ratio turned out to be 21.2.

As for QTSE, the enrichment ratio was at most 0.25.

In the case of MNKT, the enrichment ratio was at most 0.25.

Regarding EFMW, the enrichment ratio was at most 0.25.

Regarding KTPM, the enrichment ratio is at most 0.25.

With FFQM, the enrichment ratio was at most 0.25.

For TFAQ, the enrichment ratio was 2.37.

As for CVPH, the enrichment ratio is at most 0.25.

In the case of NDYD, the enrichment ratio is at most 0.25.

With GVWF, the enrichment ratio was at most 0.25.

In the case of THGD, the enrichment ratio is at most 0.25.

ADCI: the enrichment ratio was at most 0.25.

RWIP: the enrichment ratio is at most 0.25.

Take SWTH: the enrichment ratio was at most 0.25.

The values are drawn from a collection of fitness landscapes (doi:10.1126/science.1257360).
